From article PMC12820563
The list shows a part of the results. The list includes weakly bound sequences.

biological target: T1, MBP-FoxP3dN (UniProt Q99JB6); assay: PD-seq (MBP pull-down with sequencing); conditions: 20 mM Tris-HCl pH 7.5, 100 mM NaCl, 1.5 mM MgCl2, 0.4 uM protein, 0.1 uM dsDNA library, 30 min, room temperature, amylose pull-down; high values mean tight binding; double strand, one strand shown
T1 sequence: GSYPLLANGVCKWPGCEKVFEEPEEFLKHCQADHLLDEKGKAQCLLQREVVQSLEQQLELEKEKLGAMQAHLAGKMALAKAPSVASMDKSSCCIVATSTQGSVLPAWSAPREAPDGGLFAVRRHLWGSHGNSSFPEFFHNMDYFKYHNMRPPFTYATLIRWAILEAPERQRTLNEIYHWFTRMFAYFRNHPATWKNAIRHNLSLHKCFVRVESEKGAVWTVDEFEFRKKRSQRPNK

Row | Sequence | binding signal (RPM ratio (pull-down/input))
1 | GATGATTGTTCTCCCAGCTGATGAATTTCAAGGATCGAGTAAACAAATTTTCCTAATCTTTCTGTTCAAGCGCCATCTAC | 0.181
2 | GATGATTGTTCTCCCAGCTGATGAATTTCGTTACTCGAGTAAACAAATTTTCCTAATCTTTCTGTTCAAGCGCCATCTAC | 1.28
3 | GATGATTGTTCTCCCAGCTGATGAATTTATTGAGTCGAGTAAACAAATTTTCCTAATCTTTCTGTTCAAGCGCCATCTAC | 1.87
4 | GATGATTGTTCTCCCAGCTGATGAATTGTGTACCTCGAGTAAACAAATTTTCCTAATCTTTCTGTTCAAGCGCCATCTAC | 3.41
5 | GATGATTGTTCTCCCAGCTGATGAATTTTCACTGTCGAGTAAACAAATTTTCCTAATCTTTCTGTTCAAGCGCCATCTAC | 0.293
6 | GATGATTGTTCTCCCAGCTGATGAATTGTATCGGTCGAGTAAACAAATTTTCCTAATCTTTCTGTTCAAGCGCCATCTAC | 0.882
7 | GATGATTGTTCTCCCAGCTGATGAATTGCTGATTTCGAGTAAACAAATTTTCCTAATCTTTCTGTTCAAGCGCCATCTAC | 1.13
8 | GATGATTGTTCTCCCAGCTGATGAATTAATAGAGTCGAGTAAACAAATTTTCCTAATCTTTCTGTTCAAGCGCCATCTAC | 0.294
9 | GATGATTGTTCTCCCAGCTGATGAATTGCCGGCATCGAGTAAACAAATTTTCCTAATCTTTCTGTTCAAGCGCCATCTAC | 1
10 | GATGATTGTTCTCCCAGCTGATGAATTAGAACGTTCGAGTAAACAAATTTTCCTAATCTTTCTGTTCAAGCGCCATCTAC | 0.33
11 | GATGATTGTTCTCCCAGCTGATGAATTGTTGTGGTCGAGTAAACAAATTTTCCTAATCTTTCTGTTCAAGCGCCATCTAC | 5.41
12 | GATGATTGTTCTCCCAGCTGATGAATTTATGCAATCGAGTAAACAAATTTTCCTAATCTTTCTGTTCAAGCGCCATCTAC | 4.25
13 | GATGATTGTTCTCCCAGCTGATGAATTAAAAGCTTCGAGTAAACAAATTTTCCTAATCTTTCTGTTCAAGCGCCATCTAC | 0.348
14 | GATGATTGTTCTCCCAGCTGATGAATTACCTTCGTCGAGTAAACAAATTTTCCTAATCTTTCTGTTCAAGCGCCATCTAC | 0.316
15 | GATGATTGTTCTCCCAGCTGATGAATTACTTTACTCGAGTAAACAAATTTTCCTAATCTTTCTGTTCAAGCGCCATCTAC | 0.876
16 | GATGATTGTTCTCCCAGCTGATGAATTATTACTGTCGAGTAAACAAATTTTCCTAATCTTTCTGTTCAAGCGCCATCTAC | 0.462

Row | Sequence | binding signal (RPM ratio (pull-down/input))
17 | GATGATTGTTCTCCCAGCTGATGAATTGGGTCGATCGAGTAAACAAATTTTCCTAATCTTTCTGTTCAAGCGCCATCTAC | 0.294
18 | GATGATTGTTCTCCCAGCTGATGAATTACGCGTATCGAGTAAACAAATTTTCCTAATCTTTCTGTTCAAGCGCCATCTAC | 1.4
19 | GATGATTGTTCTCCCAGCTGATGAATTGCCCGACTCGAGTAAACAAATTTTCCTAATCTTTCTGTTCAAGCGCCATCTAC | 0.351
20 | GATGATTGTTCTCCCAGCTGATGAATTTGGTAGTTCGAGTAAACAAATTTTCCTAATCTTTCTGTTCAAGCGCCATCTAC | 2.3
21 | GATGATTGTTCTCCCAGCTGATGAATTTCCATCGTCGAGTAAACAAATTTTCCTAATCTTTCTGTTCAAGCGCCATCTAC | 0.336
22 | GATGATTGTTCTCCCAGCTGATGAATTCCGTTGTTCGAGTAAACAAATTTTCCTAATCTTTCTGTTCAAGCGCCATCTAC | 3.24
23 | GATGATTGTTCTCCCAGCTGATGAATTAGCTGCGTCGAGTAAACAAATTTTCCTAATCTTTCTGTTCAAGCGCCATCTAC | 0.696
24 | GATGATTGTTCTCCCAGCTGATGAATTGGCTTACTCGAGTAAACAAATTTTCCTAATCTTTCTGTTCAAGCGCCATCTAC | 2.85
25 | GATGATTGTTCTCCCAGCTGATGAATTCATCTCTTCGAGTAAACAAATTTTCCTAATCTTTCTGTTCAAGCGCCATCTAC | 0.419
26 | GATGATTGTTCTCCCAGCTGATGAATTGGGCCGTTCGAGTAAACAAATTTTCCTAATCTTTCTGTTCAAGCGCCATCTAC | 0.7
27 | GATGATTGTTCTCCCAGCTGATGAATTGCTATTCTCGAGTAAACAAATTTTCCTAATCTTTCTGTTCAAGCGCCATCTAC | 1.54
28 | GATGATTGTTCTCCCAGCTGATGAATTAGTCTGCTCGAGTAAACAAATTTTCCTAATCTTTCTGTTCAAGCGCCATCTAC | 0.66
29 | GATGATTGTTCTCCCAGCTGATGAATTACATGATTCGAGTAAACAAATTTTCCTAATCTTTCTGTTCAAGCGCCATCTAC | 0.659
30 | GATGATTGTTCTCCCAGCTGATGAATTGCTGACGTCGAGTAAACAAATTTTCCTAATCTTTCTGTTCAAGCGCCATCTAC | 0.742
31 | GATGATTGTTCTCCCAGCTGATGAATTACGCGTTTCGAGTAAACAAATTTTCCTAATCTTTCTGTTCAAGCGCCATCTAC | 3.62
32 | GATGATTGTTCTCCCAGCTGATGAATTGACTTCGTCGAGTAAACAAATTTTCCTAATCTTTCTGTTCAAGCGCCATCTAC | 0.329
